Laboratory results taken from paper PMC8321701.
No constants are given. Whether binding was seen depends on the method and setting. Some entries that bind do so weakly or less than the wild type.

By UniProt entry, the sequences of proteins in these tests, tags left out. Where a name states a change or a piece, a line headed by the entry shows the natural chain unless it says otherwise.
UniProt P62745: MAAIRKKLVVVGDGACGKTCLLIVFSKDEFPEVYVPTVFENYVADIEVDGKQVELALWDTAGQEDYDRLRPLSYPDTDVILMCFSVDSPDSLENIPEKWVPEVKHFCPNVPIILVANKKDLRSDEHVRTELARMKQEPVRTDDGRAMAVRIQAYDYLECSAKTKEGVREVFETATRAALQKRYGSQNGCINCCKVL

What was measured:
[1] = target: FLAG-tagged RhoB (T19N) (human) (UniProt P62745); assay: AlphaScreen or HTRF; in vitro binding assay of a biotinylated and a FLAG-tagged protein, both synthesized by wheat germ extracts; 100 mM Tris-HCl pH 7.5, 0.01% Tween 20, 1 mg/ml BSA, anti-FLAG antibody, streptavidin donor and anti-IgG acceptor beads; room temperature, 1 h; threshold of interaction 10 times the signal with DHFR
[2] = target: FLAG-tagged RhoB (wild-type) (human) (UniProt P62745); assay: as above
[3] = target: FLAG-tagged RhoB (Q63L) (human) (UniProt P62745); assay: as above
[4] = target: FLAG-tagged RhoB (Q63L) (human) (UniProt P62745); assay: AlphaScreen or HTRF; as the in vitro binding assay, protein mixtures incubated with PHT-7.3 (CNKSR1 inhibitor) for 1 h
[5] = target: FLAG-tagged RhoB (Q63L) (human) (UniProt P62745); assay: AlphaScreen or HTRF; as the in vitro binding assay, protein mixtures incubated with di-C8:0-PI(4,5)P2 for 1 h

B1: biotinylated CNKSR1 (wild-type) (protein, UniProt Q969H4 1-720)
chain: MEPVETWTPGKVATWLRGLDDSLQDYPFEDWQLPGKNLLQLCPQSLEALAVRSLGHQELILGGVEQLQALSSRLQTENLQSLTEGLLGATHDFQSIVQGCLGDCAKTPIDVLCAAVELLHEADALLFWLSRYLFSHLNDFSACQEIRDLLEELSQVLHEDGPAAEKEGTVLRICSHVAGICHNILVCCPKELLEQKAVLEQVQLDSPLGLEIHTTSNCQHFVSQVDTQVPTDSRLQIQPGDEVVQINEQVVVREERDMVGWPRKNMVRELLREPAGLSLVLKKIPIPETPPQTPPQVLDSPHQRSPSLSLAPLSPRAPSEDVFAFDLSSNPSPGPSPAWTDSASLGPEPLPIPPEPPAILPAGVAGTPGLPESPDKSPVGRKKSKGLATRLSRRRVSCRELGRPDCDGWLLLRKAPGGFMGPRWRRRWFVLKGHTLYWYRQPQDEKAEGLINVSNYSLESGHDQKKKYVFQLTHDVYKPFIFAADTLTDLSMWVRHLITCISKYQSPGRAPPPREEDCYSETEAEDPDDEAGSHSASPSPAQAGSPLHGDTSPAATPTQRSPRTSFGSLTDSSEEALEGMVRGLRQGGVSLLGQPQPLTQEQWRSSFMRRNRDPQLNERVHRVRALQSTLKAKLQELQVLEEVLGDPELTGEKFRQWKEQNRELYSEGLGAWGVAQAEGSSHILTSDSTEQSPHSLPSDPEEHSHLCPLTSESSLRPPDL
modifications: biotinylated
binding [1]: no binding | binding [2]: no binding | binding [3]: binds | binding [4]: binds | binding [5]: binds
